According to patent US20260091097A1, “COMBINATION TREATMENT REGIMES FOR TREATING CANCER” (Barinthus Biotherapeutics North America, Inc., priority 2022, published 2026):

Tested on: neoAg-specific CD8+ T cells
Assay: Flow cytometry of tetramer+ CD8+ T cells after SNP vaccination
Type: in vivo, mouse
Conditions: blood, day 21; SNP-SC (Reps1) prime, IV boost without Reps1
Method: For T cell tetramer analysis, cells were assessed for viability with LIVE/DEAD Fixable Blue Dead Cell Stain Kit (Invitrogen) in PBS containing 50 nM dasatinib (STEMCELL Technologies) for 30 min at room temperature. Samples were then washed and blocked with anti-CD16/CD32 (BD Biosciences). Cells were then stained with fluorescently conjugated tetramer in cell staining buffer (PBS and 2% FCS) containing 50 nM dasatinib to enhance staining. Cells were simultaneously stained with the following surface antibodies to: CD8 (clone 53-6.7), PD-1 (clone 29F.A12), Tim-3 (clone RMT3-23), CD44 (clone IM7), CD39 (clone Duha59), and NKG2A (clone 16A11) purchased from BioLegend and CD4 (clone RM4-4) purchased from BD Biosciences. After a 1-h incubation at 4° C., cells were washed twice in cell staining buffer, fixed and permeabilized using the FoxP3 transcription factor staining buffer set (eBioscience). […]
To assess whether there are differences in the magnitude of neoAg-specific CD8^+ T cells after SNP-SC or SNP-IV boost, whole blood was sampled on day 21, a week after the boost and measured the tetramer^+ population by flow cytometry (FIG. 1G). […]
As markers of exhaustion and antigen experience on CD8^+ T cells are important for improving the therapeutic effects of immune checkpoint blockade, the expression of PD-1, TIM-3 and NKG2A post vaccination were assessed. […]

polyIC:LC
Frequency of neoAg-specific CD8+ T cells in circulation: approximately 1 % of total CD8+ T cells
